Measured values published in the supplement of paper PMC3334620.
The full ranking holds about 33,000 sequences; the median of “E-score (-0.5 to 0.5)” is about -0.035, and the highest 2% start at about 0.34. This is one part of the list.

target: T1, Mot3 (UniProt P54785); test: PBM E-score (8-mer binding enrichment) (E-score (-0.5 to 0.5)); higher = stronger / more preferred TF binding; most listed sequences are background and not binding sites; conditions: protein concentration: 200 nM; construct: GST-full length
T1 sequence: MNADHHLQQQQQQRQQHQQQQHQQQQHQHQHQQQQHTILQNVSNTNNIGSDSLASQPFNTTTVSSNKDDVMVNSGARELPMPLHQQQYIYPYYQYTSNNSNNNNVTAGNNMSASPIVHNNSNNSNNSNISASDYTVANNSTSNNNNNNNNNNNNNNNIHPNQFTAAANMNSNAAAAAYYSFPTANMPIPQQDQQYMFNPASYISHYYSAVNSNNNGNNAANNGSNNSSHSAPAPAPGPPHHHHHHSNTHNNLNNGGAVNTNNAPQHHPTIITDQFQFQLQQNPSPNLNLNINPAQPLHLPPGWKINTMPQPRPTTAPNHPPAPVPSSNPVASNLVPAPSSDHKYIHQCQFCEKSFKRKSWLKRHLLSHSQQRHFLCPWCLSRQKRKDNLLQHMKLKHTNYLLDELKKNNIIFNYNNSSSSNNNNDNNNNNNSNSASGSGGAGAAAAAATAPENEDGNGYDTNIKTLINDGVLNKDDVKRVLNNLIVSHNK
How it was run: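 Universal all-10-mer Agilent arrays, double-stranded by primer extension on fresh or once-stripped slides, were probed with about 100-200 nM GST-tagged yeast transcription factors made by PURExpress. Fluorescent anti-GST detected bound protein, and masliner normalised the scans. E-scores from the Universal PBM Analysis Suite were given to each ungapped eight-base word pooled with its reverse complement.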

Row | Sequence | PBM E-score
1 | ATTAACCA | 0.0114
2 | CCTCCGGA | -0.264
3 | GTGTTTTA | 0.219
4 | AACGAGGT | -0.0123
5 | AGTACACT | 0.0534
6 | GTTCCGAA | -0.0115
7 | TCAGCAGA | -0.256
8 | AACTGGTA | -0.115
9 | TTTCAAAA | 0.193
10 | TAGGGGGA | -0.264
11 | TAGCGGGA | -0.137
12 | GCTACAAC | -0.0719
13 | CTACAATA | 0.101
14 | TAACTGCA | 0.0264
15 | CGCTCGTA | -0.0689
16 | AAGTGAGA | -0.207
17 | ATTCTCTC | -0.103
18 | ATCATCAA | -0.172
19 | TCGATGAA | 0.14
20 | GTCAAGCA | -0.145
21 | AGTTAAAT | 0.0894
22 | GTCCCTCA | -0.316
23 | CGGTCTCA | -0.151
24 | ATCTCCAA | -0.0721
25 | CCGGAAGC | -0.344

Row | Sequence | PBM E-score
26 | ACAGTAAG | -0.0563
27 | ATTCAACC | -0.106
28 | TAAGTGGA | 0.0328
29 | AGTCGCTG | 0.0387
30 | GCACCGCA | 0.0358
31 | ACAGATTC | 0.137
32 | AAGTGTCT | 0.0575
33 | ATTTACAG | 0.228
34 | AAAGAGTC | -0.253
35 | ACCGCCAC | -0.0442
36 | ATCGGCAA | -0.0592
37 | ACTGCAGC | -0.192
38 | AAGGAATT | -0.0259
39 | GCCGCCCC | -0.286
40 | TGTCGACA | 0.111
41 | AGGTGAAG | 0.0316
42 | GTACATAA | 0.306
43 | AAACTCGG | -0.0447
44 | ACCTCCTG | -0.158
45 | ACCCTGGG | -0.193
46 | GATCAAGA | -0.0898
47 | CACCGAGG | -0.146
48 | AATGAAAC | 0.186
49 | AACGCGGG | 0.0474
50 | CATCAGCC | -0.218

Row | Sequence | PBM E-score
51 | ACCTGGGG | -0.106
52 | CCGCTTAA | -0.0697
53 | CGACGCCC | -0.151
54 | CATGATCA | 0.142
55 | CCAGAGGC | -0.247
56 | CTGCATTA | 0.0247
57 | TAAGAGTA | -0.0163
58 | GGACTGGA | -0.236
59 | AGGCTATA | 0.157
60 | AGATATTA | -0.212
61 | CCAGCCAG | -0.318
62 | AGACGCCA | -0.221
63 | GCGATCCA | -0.135
64 | TACCTTCA | 0.376
65 | CATTAATA | 0.101
66 | GTGGAGTA | -0.114
67 | ACGTCTCG | 0.0294
68 | ACGAACGG | -0.0309
69 | AATAGAGA | -0.0351
70 | GCATAGAA | 0.074
71 | CATCCCCA | -0.119
72 | CAAGCGAG | -0.0117
73 | CCGCGCGC | -0.274
74 | AACCGTGG | -0.132
75 | ACCCAGTA | -0.0631

Row | Sequence | PBM E-score
76 | GGTAGACA | -0.0476
77 | ATCTCTTA | 0.116
78 | CTGCTGCC | 0.0731
79 | AAGCAGCT | -0.0995
80 | ATGTGCAC | -0.044
81 | AGAGTCCC | -0.341
82 | CTCACACA | -0.0904
83 | GAATGTCA | 0.00909
84 | CCAGACCA | -0.0567
85 | GCTAGAAA | 0.00459
86 | AGAATTAC | 0.241
87 | GACACACC | 0.12
88 | TGAGCCAA | -0.0395
89 | CTATGCAC | 0.00726
90 | CAACTGGA | -0.287
91 | GATGCGCC | 0.0303
92 | AAGAATTG | 0.0628
93 | ACGCTAGC | -0.0971
94 | TAGCCATA | -0.0449
95 | ATGGGAGC | -0.193
96 | ATCTCCCC | -0.218
97 | AGTGCATA | 0.0511
98 | ATGGGTCA | -0.107
99 | ACAAATTA | 0.121
100 | CCCTTAGA | -0.275

Row | Sequence | PBM E-score
101 | CGTTCTCA | 0.0295
102 | TGACACAA | 0.163
103 | AATGTGTC | -0.00988
104 | CCATCCCA | -0.197
105 | ACTACGCA | 0.181
106 | CAGAGAGC | -0.316
107 | AACGGGCC | -0.116
108 | GGTTCGAC | -0.00155
109 | CAACCATC | -0.207
110 | GCAAGCCC | 0.00825
111 | CATGCGGC | 0.0009
112 | ATAGCAAA | 0.0517
113 | GTATGAGA | -0.0168
114 | CCAAGCGA | -0.139
115 | ATGAGGAA | 0.148
116 | AAGCGCGG | -0.00731
117 | ATCCCATA | -0.0721
118 | CAAGTTGG | 0.00951
119 | CCCGACAC | -0.125
120 | CATGGTCC | -0.0336
121 | AGTCACAA | 0.067
122 | ATACTGCG | -0.0976
123 | AACCTTTC | -0.107
124 | ATTGTCGG | -0.119
125 | GCGTGAGA | -0.00843

Row | Sequence | PBM E-score
126 | ATTTTTGC | 0.0577
127 | AAGAGAGT | -0.0969
128 | AACCAGCA | -0.0345
129 | CTAGAGCC | -0.0763
130 | CCACAACC | -0.0893
131 | CGGAAAAG | -0.213
132 | GGTACAGA | 0.15
133 | CAAGATAG | -0.0788
134 | CACTCTCC | -0.141
135 | CCTTAATA | 0.277
136 | GATGCATA | -0.153
137 | CCCCCCCA | -0.429
138 | ACTGGTGA | -0.071
139 | GACCGCGA | -0.365
140 | CCACTCAC | -0.138
141 | CATCCTGC | -0.144
142 | GCGATTAC | 0.0831
143 | ACAGGACC | -0.057
144 | CCTCCCGC | -0.23
145 | AGGGATCC | -0.223
146 | ATGTCGCG | 0.00468
147 | CGAGAACG | -0.206
148 | GGTATCAA | -0.062
149 | AGCACGAG | -0.154
150 | AATGAATT | 0.112

Row | Sequence | PBM E-score
151 | GAAGAACC | -0.157
152 | GCTGACCA | -0.361
153 | GCGAGACC | -0.288
154 | ACTTGTTC | 0.162
155 | GAAGCGTC | -0.0399
156 | GAACGGGC | -0.257
157 | CCTCCTCG | -0.355
158 | AGTCTGCG | -0.148
159 | CAGGTACC | 0.434
160 | AGTGGGTA | -0.108
161 | GTTGGGGA | -0.12
162 | CACATGGG | -0.0126
163 | AGCATCCC | -0.222
164 | AGACCGAT | -0.0276
165 | TCTCCGCA | -0.103
166 | CACGCAGA | 0.0829
167 | AAAAACGA | 0.145
168 | TATGGGAA | -0.212
169 | ACTACAAC | 0.102
170 | GGTAATGA | 0.0343
171 | AAGGATGG | -0.131
172 | GGGCTGCA | -0.312
173 | GGCTGTAC | -0.0498
174 | ATCGACCC | -0.0926
175 | AAATGTTA | 0.288

Row | Sequence | PBM E-score
176 | CAAATTAG | -0.0114
177 | GTCTCTCA | -0.0805
178 | ATAATACC | 0.0179
179 | CCTGGAAC | 0.0951
180 | GGGTGCAC | -0.0936
181 | CCAGATCA | 0.163
182 | CGTCCGCC | -0.187
183 | GATGCGGA | -0.105
184 | ATCGTCGA | -0.081
185 | GCTAGAAC | 0.016
186 | CCTGGCCA | -0.161
187 | AGGTCAAC | -0.00356
188 | GCCAAAAC | 0.0697
189 | CACACCCG | -0.0276
190 | TAATAAAA | 0.244
191 | CTCAGCCA | -0.183
192 | AACGCTAT | -0.166
193 | ACGATCCT | -0.169
194 | CAGGGCCA | -0.335
195 | CTGATTTC | -0.145
196 | TAGTCGCA | -0.0514
197 | AAGAGGGC | -0.117
198 | ACTGTCCC | -0.216
199 | CGAATGCG | -0.0144
200 | AGCCAGAA | -0.0671

Row | Sequence | PBM E-score
201 | CCTCGGAG | -0.0162
202 | GCAATGGC | -0.308
203 | TCAAGGCA | 0.458
204 | AACTGAAG | 0.00993
205 | AGACAGTC | -0.135
206 | CTCATTTA | 0.0667
207 | CCAGGAAC | 0.406
208 | ATGCGGGG | -0.23
209 | CAATATTC | -0.175
210 | AACGGATT | 0.0237
211 | AGGTCCAA | -0.173
212 | CAGGATAA | 0.0585
213 | AGCAATCC | -0.242
214 | TACAAAGA | 0.233
215 | CCGGACCG | -0.264
216 | ACCGATAG | -0.251
217 | CATCAGAG | -0.139
218 | CCGGCGGA | -0.24
219 | GCTTGAAC | 0.102
